In PubChem BioAssay AID1508624 (National Center for Advancing Translational Sciences (NCATS), 2021):
About 120 (0.25%) of roughly 48,000 compounds were called active. Not shown: some 4% with an inconclusive outcome. Calls follow the shape of the dose curve; as a rule, active = well fitted activation curve with a large enough effect; inconclusive = small, poorly fitted or top-dose-only effect, or another doubt; inactive = no such curve, though single readings can be large or run the other way. The list shows a part of the results.

Assay: Primary qHTS for Identification of Small Molecule Activators of Huntingtin-Antisense Promoter Activity; also: nearly all actives have a fitted effect of over 55% in size
Settings: HEK293 HTT-AS promoter firefly luciferase reporter, 24 h; series mostly up to 57.5 µM; activity change, positive = activation: at the top concentration
In short: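 HEK293 Fluc reporter, 2,500 cells/well, 24 h pre-culture; cpds up to 57.5 uM final, 24 h 37 degrees C; Dual-Glo, 10 min RT; normalized vehicle = 0%, zero RLU = -100%.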

Structure (SMILES)	activity change, positive = activation
COc1ccc(NC(=O)C(=O)NCC(c2cccnc2)N2CCc3ccccc32)cc1OC (stereo not given)	inactive: -27%
Cc1c(C2=CCN(S(=O)(=O)c3cccc(Cl)c3)CC2)c2ccccc2n1CC(=O)N1CCCC1	inactive: -33.2%
CN(Cc1ccccc1)S(=O)(=O)c1ccc(-c2cnc(C3CC3)o2)cc1	inactive: -18.4%
Cc1ccc(NC(=O)C(C)Sc2nc(=O)cc(N)n2-c2cccc(C)c2)cc1 (stereo not given)	inactive: -17.8%
COc1cccc(S(=O)(=O)N2CCN(Cc3ccc4c(c3)OCO4)CC2)c1	inactive: -10.4%
CCc1ccc(-c2nc3c(c(SCc4ccccc4F)n2)Cc2c(CO)cnc(C)c2O3)cc1	inactive: -8.91%
Cc1cccc(N2CCN(C(=O)CN3CCSc4ccccc43)CC2C)c1 (stereo not given)	inactive: -27%
CCCc1nc(SC)ncc1C(=O)N1CCN(c2ccc(Cl)cc2)CC1	inactive: -36.4%
O=C(Nc1ccc2nc(SCC(=O)N3CCc4ccccc43)sc2c1)c1ccc(F)cc1	inactive: -7.76%
O=c1c2oc3ccccc3c2n(Cc2ccccc2Cl)c(=O)n1Cc1ccco1	inactive: -16.9%
COc1ccc(CN(Cc2ccco2)c2cnc(S(C)(=O)=O)nc2C(=O)Nc2ccc(C)c(Cl)c2)cc1	inactive: -17.9%
Cc1ccc(NC(=O)c2cnn3c(C(F)F)cc(-c4ccccc4)nc23)cc1F	inactive: 1.21%
CCCn1c(SCc2nc(-c3ccc(OC)c(OC)c3)no2)nnc1-c1ccccc1	inactive: -23.3%
CC(C)Oc1ccc(C(=O)N2CCN(CCc3ccccn3)CC2)cc1	inactive: -8.08%
O=C(NCCc1ccccc1)C1CCC(CNS(=O)(=O)c2ccccc2)CC1 (stereo not given)	inactive: -0.55%
CC(=O)OCC(=O)[C@@]12N=C(C)O[C@@H]1C[C@H]1[C@@H]3CCC4=CC(=O)C=C[C@]4(C)[C@H]3[C@@H](O)C[C@@]12C	inactive: -1.83%
NS(=O)(=O)c1ccc(CCNC(=O)Cn2c(-c3cccs3)cc3ccccc32)cc1	inactive: -28.2%
Cc1cc2c(cc1C)NC(CC(=O)Nc1cccc(Cl)c1)C(=O)N2 (stereo not given)	inactive: -25.1%
O=C(O)Cc1sc(-c2ccccc2)nc1-c1ccc(Cl)cc1	inactive: -7.71%
C=CCc1cccc2cc(C(=O)NCCc3c(C)[nH]c4c(C)cccc34)c(=O)oc12	inactive: -10.8%
CCN(CC)c1ccc(NC(=O)CCc2nc3cccnc3n2Cc2cccs2)c(C)c1	inactive: -18.8%
O=C(NCC(c1ccc2c(c1)OCO2)N1CCOCC1)C(=O)Nc1ccccc1 (stereo not given)	inactive: -3.26%
CCOC(=O)N1CCC(NC(=O)c2cnn(-c3ccc(F)cc3F)c2C2CCN(C(=O)OC(C)(C)C)CC2)CC1	inactive: -16.3%
Cc1ccccc1NC(=O)c1ccc2c(O)c(S(=O)(=O)c3ccccc3)c(=O)[nH]c2c1	inactive: -4.61%

Structure (SMILES)	activity change, positive = activation
Cc1cccc(N2CCN(S(=O)(=O)c3ccc(-c4cc(C(F)(F)F)on4)s3)CC2)c1C	inactive: -16.6%
Cc1ccccc1OCC(=O)Nc1ccc2nc(SCC(=O)N3CCc4ccccc43)sc2c1	inactive: -26%
O=C(C1CCCN(S(=O)(=O)c2ccc(Br)s2)C1)N1CCN(c2cccc(Cl)c2)CC1 (stereo not given)	inactive: -25.4%
COc1cccc(C2C(C(=O)Nc3ccc(Cl)cc3)=C(C)Nc3nc4ccccc4n32)c1 (stereo not given)	inactive: -19.9%
OCc1cc(C(O)CNCCCCCCOCCCCc2ccccc2)ccc1O (stereo not given)	inactive: -13.3%
CCC(C)Sc1oc(-c2ccco2)nc1S(=O)(=O)c1ccc(C)cc1 (stereo not given)	inactive: -34.8%
Cc1ccc(CNc2ncnc3c2cnn3-c2ccc(Cl)cc2)cc1	inactive: 18.3%
COc1ccc2c(c1)c1c(c(=O)n(-c3ccc(C)cc3)c(=O)n1CC(=O)NCc1ccc(C)cc1)n2C	inactive: -5.41%
COc1ccc(Cl)cc1NC(=O)c1nnn(Cc2cccc(C(F)(F)F)c2)c1N	inactive: 8.51% [at 11.5 µM, percent change from vehicle, -100% = no light]
O=C(Nc1nnc(S(=O)(=O)N2CCOCC2)s1)c1ccccc1F	inactive: 18%
Cc1ccc(NC(=O)C(C)Sc2nc(-c3ccccc3)c(C#N)c(=O)[nH]2)c(C)c1 (stereo not given)	inactive: -9.64%
O=c1c(N2CCc3ccccc3C2)csc2ccc(Cl)cc12	inactive: 21%
CC(C)Cc1nn2c(=O)cc(COC(=O)c3ccc(NC(=O)CCc4ccccc4)cc3)nc2s1	inactive: 12.2%
COc1ccc(Nc2c(-c3ccc(N4CCOCC4)cc3)nc3ncccn23)cc1OC	inactive: -6.77%
CC(C)c1cnc2c(c1SCC(=O)N1CCCCC1)c(=O)n(C)c(=O)n2C	inactive: -16.1%
CCOc1cc(CN2CCN(S(=O)(=O)c3ccc(C)cc3)CC2)ccc1OC	inactive: -20.9%
COc1ccc(/C=C/C(=O)Nc2sc(C)c(C)c2C(=O)O)cc1	inactive: 20%
CCc1ccc2c(c1)NC(c1ccc(C)cc1)=NC(c1cccs1)=N2	inactive: 23.9%
CCn1c(=O)sc2cc(NS(=O)(=O)c3ccc(C)cc3)ccc21	inactive: -26.9%
CCOC(=O)N1CCc2c(sc3c2c(=O)n(Cc2ccccc2)c(=O)n3CC(=O)Nc2ccc(C)cc2C)C1	inactive: -13%
COc1ccc(CCNC(=O)c2c(C)oc3ncnc(N4CCOCC4)c23)c(OC)c1	inactive: -10.6%
Cc1ccc(S(=O)(=O)Nc2cc3c(cc2C)n(C)c(=O)c(=O)n3C)c(C)c1	inactive: -18.6%
Cc1cc(C)cc(Nc2cc(C(=O)NC3CCC(C)CC3)c3ccccc3n2)c1 (stereo not given)	inactive: -5.27%
CCCN1C(C(=O)c2ccccc2)=C(OC(=O)c2ccc(OC)cc2)c2ccccc2S1(=O)=O	inactive: -9.15%

Structure (SMILES)	activity change, positive = activation
CCc1nc(-c2cc(S(=O)(=O)N3CCN(c4ccccc4F)CC3)ccc2OC)no1	inactive: -20.1%
Cn1nnnc1SCCCNCc1ccc(-c2ccc(F)c(Cl)c2)o1	inactive: -15.3%
CN(Cc1ccc(F)cc1)S(=O)(=O)c1nnc(NC(=O)c2ccccc2Cl)s1	inactive: -14.7%
O=C(Cn1c(=O)c(C(F)(F)F)nc2ccccc21)Nc1cccc(Br)c1	inactive: 16.9%
CCc1ccc(NC(=O)CN2C(=O)CCSc3ccccc32)cc1	inactive: -18.6%
Cc1ccc(CNC(=O)C2CCCN(S(=O)(=O)c3cn(C)cn3)C2)cc1 (stereo not given)	inactive: -3.26%
O=C(NCCc1ccccc1)c1ccc(CS(=O)(=O)Cc2ccccc2Cl)o1	inactive: -20.1%
Cc1cc(=O)n(CC(=O)NCc2ccc(OC(C)C)cc2)c2c1c(C)nn2-c1cccc(F)c1	inactive: -8.68%
Cc1cc(C)cc(NS(=O)(=O)c2ccc(N3CCCCS3(=O)=O)cc2)c1	inactive: -26.2%
Cc1c(C(=O)Nc2ccc(F)c(Cl)c2)oc2ccc(S(=O)(=O)N(C)C3CCCCC3)cc12	inactive: -30.3%
Cc1ccc(-n2ncc(C(=O)Nc3ccc4c(c3)OCO4)c2C2CCN(C(=O)OC(C)(C)C)CC2)c(C)c1	inactive: -23.8%
COc1cc(-c2noc(-c3ccc(NCc4ccco4)c([N+](=O)[O-])c3)n2)cc(OC)c1OC	inactive: -9.3%
CCOC(=O)c1nc(Nc2ccccc2OC)c2ccccc2n1	inactive: -11.2%
Cc1cn2c(=O)cc(COc3ccc(NC(=O)c4ccccc4C)cc3)nc2s1	inactive: -2.13%
CCCCN(CC)C(=O)c1cc2c(=O)n3ccccc3nc2n1C	inactive: 9.58%
CNCCC(Oc1ccc(C(F)(F)F)cc1)c1ccccc1 (stereo not given)	inactive: -26.8%
CCc1ccccc1N(C)C(=O)c1cn(-c2cccc(OC)c2)c(=O)c2ccccc12	inactive: -36.2%
Cc1nc2n(c(=O)c1CCN1CCC(c3noc4cc(F)ccc34)CC1)CCCC2	inactive
O=C(Nc1ccc(F)cc1F)C1CCN(S(=O)(=O)c2ccc3[nH]c(=O)ccc3c2)CC1	inactive: -17.8%
CCc1ccc(NC(=O)Cn2nnc(C(=O)NCc3ccc(C)cc3)c2N)cc1	inactive: -8.53%
CCc1ccc(OCc2nc(-c3ccc(OC)c(OC)c3)no2)c(Br)c1	inactive: -14%
COc1cc(NC(=O)CCc2nc3cccnc3n2Cc2cccs2)cc(OC)c1OC	inactive: -29.5%
CC1(C(=O)NC2CCCCC2)Cc2ccccc2C(=O)N1Cc1ccccc1Cl (stereo not given)	inactive: -21.3%
O=C(CCc1nc2cccnc2n1-c1ccccc1)Nc1ccc(Cl)c(Cl)c1	inactive: -29.2%

Structure (SMILES)	activity change, positive = activation
CN(C)c1ccc(C2C=C(c3ccccc3)Nc3nnnn32)cc1 (stereo not given)	inactive: 13.9%
CC(=O)c1ccc(N2C(=O)N(Cc3ccccc3C#N)c3ccccc3S2(=O)=O)cc1	inactive: -14.6%
CCOc1ccc(C(=O)NCC(c2ccc3c(c2)OCO3)N2CCOCC2)cc1 (stereo not given)	inactive: -15.3%
COc1ccc(CNC(=O)CCNS(=O)(=O)c2cccc3nsnc23)cc1	inactive: -4.72%
CCOc1ccccc1CNC(=O)c1ccc(NC(=O)N2CCSc3ncccc32)cc1	inactive: -25.5%
COc1ccc2oc(=O)c(-c3cn4c(n3)sc3cc(OC)ccc34)cc2c1	inactive: 1.07%
COc1ccc(OC)c(CNC(=O)Cn2nc(C)c3nn(-c4ccc(Cl)cc4)c(C)c3c2=O)c1	inactive: -27.3%
COc1ccc(/C=C/C(=O)Nc2nc3n(n2)C(c2ccccc2)C=C(c2ccc(Cl)cc2)N3)cc1 (stereo not given)	inactive: -27.6%
COc1ccc2c(Sc3ccccc3)c(C(=O)NCCCN3CCCCC3)[nH]c2c1	inactive: -27.3%
CCc1ccccc1NC(=O)Nc1nnc(N(C)Cc2ccccc2)s1	inactive: -15.8%
C[C@@H](CN1CC(=O)NC(=O)C1)N1CC(=O)NC(=O)C1	inactive
Clc1ccc(N2CCN(c3ncnc4c3cnn4-c3ccccc3)CC2)cc1Cl	inactive: -2.94%
COc1ccc(NC(=O)c2cc(S(=O)(=O)N3CCCCCC3)cn2C)cc1Cl	inactive: -31.1%
COc1ccc(N(Cc2cccs2)C(=O)c2ccc(C(C)(C)C)cc2)cc1	inactive: -34.4%
COc1cc2[nH]c(=O)n(Cc3ccc(C(=O)N4CCN(c5cc(Cl)ccc5C)CC4)cc3)c(=O)c2cc1OC	inactive: -16.6%
O=C(NCC(c1ccc2c(c1)OCO2)N1CCOCC1)C(=O)Nc1ccc(F)cc1F (stereo not given)	inactive: 10.3%
O=C(Cn1cnc2c(oc3ccccc32)c1=O)Nc1ccc(OC(F)(F)F)cc1	inactive: 1.79%
O=C(Nc1cccc(Cl)c1)N1CCC(CN2CCOCC2)CC1	inactive: 13.5%
CC(=O)Nc1ccc(CC(=O)O)cc1	inactive: -6.9%
O=C(CN1C(=O)CC(c2ccco2)Sc2ccccc21)Nc1ccc(C(F)(F)F)cc1 (stereo not given)	inactive: -36%
CC(C)(C)c1ccc(S(=O)(=O)c2cn(CC(=O)Nc3ccccc3)c3ccccc3c2=O)cc1	inactive: -22.9%
COc1ccccc1CNC(=O)Cc1csc2nc(-c3ccccc3)cn12	inactive: 1.75%
Cc1ccc(CNC(=O)c2ccc3c(c2)N(Cc2ccccc2)C(=O)c2ccccc2S3(=O)=O)cc1	inactive: -9.41%
